Screen size: about 320,000 compounds; about 200 (0.062%) were called active. Inconclusive means that the source gave no clear call. Such entries were picked first, then a sample of the others. Calls come from the whole dose curve; as a rule, active = well fitted activation curve with a large enough effect; inconclusive = small, poorly fitted or top-dose-only effect; inactive = no such curve, though single readings can be large or run the other way. Potencies of inconclusive entries are left out as doubtful fits.
Assay: qHTS assay for re-activators of p53 using a Luc reporter; note: nearly all actives have a fitted effect of over 45% in size; for activity change, positive = activation: % of control where 0% means no effect
Settings: H1299 p53-A138V BP100-luciferase reporter, luminescence, 24 h; series mostly up to 92.2 µM; activity change, positive = activation: at the top concentration
Summary of the method: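 p53-null H1299 cells stably carrying temperature-sensitive p53-A138V and a BP100-luciferase reporter were pinned with compounds (4-point, 1:5 series) and held 24 hrs at 37 deg C. Luminescence was read 10 min after detection reagent.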
Potency is the fitted concentration of half-maximal effect; tags give direction and shape of the fitted curve.

SMILES | Potency | activity change, positive = activation
O=C(c1cc(-c2ccc(Br)cc2)on1)N1CCOCC1 | inconclusive [activator, full curve, poor fit] | 
N/C(=N\OC(=O)c1cccc2ccccc12)c1cccc([N+](=O)[O-])c1 |  | inactive: 5.57%
C=CCn1c(SCC(=O)C(C)(C)C)nnc1-c1cccs1 | inconclusive [activator, single point] | 
COC(=O)C1C(=O)c2c([nH]c(C(=O)OCCSC)c2C)CC1C (stereo not drawn) | inconclusive [activator, full curve] | 
CN1CCN(C(=O)CCCN2C(=O)/C(=C/c3cccc(Br)c3)SC2=S)CC1 | inconclusive [activator, full curve, poor fit] | 
Nc1cc(N)nc(SCc2cccc(F)c2)n1 | inconclusive [activator, partial curve, poor fit] | 
COc1ccc(Cn2nnnc2C(c2ccc(F)cc2)N2CCN(C3CCCC3)CC2)cc1 (stereo not drawn) | inconclusive [activator, partial curve, poor fit] | 
O=c1[nH]c(C(F)(F)F)nc2ccc3ccccc3c12 | inconclusive [activator, single point] | 
CCc1sc(C(=O)Nc2ncccc2C)cc1C | inconclusive [activator, partial curve, poor fit] | 
O=C(COc1ccc(Cl)cc1)NNC(=S)NCc1ccccc1 |  | inactive: -8.12%
COC(=O)c1ccc(Cn2nc(-c3ccc(C)cc3)ccc2=O)cc1 |  | inactive: -1.21%
Cc1cc(-c2cc(-c3ccccc3)on2)nc(NCC2CC2)n1 |  | inactive: 7.39%
O=C(/C=C/c1ccoc1)c1ccccc1O | inconclusive [activator, full curve] | 
CC(C)=CCC(C)(C)CNC(=O)NC1CCCCC1 | inconclusive [activator, single point] | 
CCCCCCSc1cc(-c2nc3cc(C)ccn3c2NCCCC)ccc1OC |  | inactive: 8.26%
NC(=O)c1c(NC(=O)c2cccs2)sc2c1CCCCCC2 | inconclusive [activator, full curve, poor fit] | 
COc1ccccc1C(=O)Nc1ccccn1 | inconclusive [activator, full curve, poor fit] | 
CCN(CC(=O)Nc1c(F)cccc1F)C(=O)/C=C/c1ccc(C)cc1 | inconclusive [activator, partial curve, poor fit] | 
C=CCN=c1scc(-c2ccccc2)n1/N=C/c1ccccn1 | inconclusive [activator, partial curve, poor fit] | 
Cc1ccc(OCC(=O)N/N=C\c2ccc(-c3cccc(C(=O)O)c3)o2)c(C)c1 | inconclusive [activator, full curve, poor fit] | 
O=C(CCCCCNC(=O)N1CCn2c1nc1ccccc12)NCc1ccc(Cl)cc1 |  | inactive: -5.09%
CC1=NC(=O)C(N=Nc2cccc(O)c2)N1c1ccccc1 (stereo not drawn) | inconclusive [activator, partial curve, poor fit] | 
O=C(NCCc1ccc(F)cc1)c1coc(=O)c(Br)c1 | inconclusive [activator, single point] | 
CCN(CC)S(=O)(=O)c1ccc(NC(=S)NC(=O)CC(C)C)cc1 |  | inactive: 1.71%

SMILES | Potency | activity change, positive = activation
Cc1cc(O)c(-c2cc(C(=O)Nc3ccc(S(=O)(=O)N4CCOCC4)cc3)[nH]n2)cc1C |  | inactive: -14.5%
CCN(CC1COc2ccccc2O1)C(=S)NC1CC2CCC1C2 (stereo not drawn) |  | inactive: 11.6%
O=C(Cc1cn2ccsc2n1)Nc1nc2c(s1)CCCC2 |  | inactive: 5.73%
COC(=O)c1ccc(COc2cccc(C)c2C)cc1 | inconclusive [activator, single point] | 
CCOC(=O)c1[nH]c2cc3c(cc2c1NC(=O)CN1CCCC1)OCO3 |  | inactive: -3.31%
O=C(Cc1ccc(Br)cc1)Nc1nc2ccccc2[nH]1 |  | inactive: 12.1%
Cc1ccc(NC(=S)NCC(C)C)cc1 | inconclusive [activator, partial curve, poor fit] | 
Clc1ccc(CSc2cc3c(nn2)-c2ccccc2CC3)cc1 | inconclusive [activator, single point] | 
COc1cc(NC(=O)c2cc([N+](=O)[O-])ccc2NC(=O)CNCc2ccccn2)cc(OC)c1 |  | inactive: -4.68%
COc1ccc2[nH]c(C)c(CCNC(=S)Nc3ccccc3C)c2c1 |  | inactive: 3.51%
NC(=O)CC[C@H](NC(=O)c1ccc(F)cc1)C(=O)OCC(=O)NCc1ccc2c(c1)OCO2 | inconclusive [activator, single point] | 
O=C(N/N=C1\CC(c2ccccc2)Oc2ccccc21)c1ccc(O)cc1 (stereo not drawn) | inconclusive [activator, single point] | 
CCOc1ccc(-c2nnc(NC(=O)C3CCCC3)o2)cc1 | inconclusive [activator, full curve, poor fit] | 
CCC(=O)NC(=S)Nc1cccc(NC(=O)c2ccco2)c1 |  | inactive: -5.45%
COc1cccc(C(=O)N2CCN(c3ccc(N4CCOCC4)nn3)CC2)c1 |  | inactive: -0.514%
c1nc(Nc2ccc(N3CCOCC3)cc2)c2ccsc2n1 |  | inactive: 6.78%
COc1ccccc1N(C)S(=O)(=O)c1ccc(Cl)c(C(=O)NCc2ccco2)c1 |  | inactive: 1.3%
O=[N+]([O-])c1cc(Br)c(Nc2ccccc2)c([N+](=O)[O-])c1 |  | inactive: -12%
CN(C)S(=O)(=O)c1cccc(N=C2NN=C(c3ccccc3)CS2)c1 | inconclusive [activator, full curve, poor fit] | 
CS(=O)(=O)Nc1cccc(C2=NN(C(=O)c3cccc([N+](=O)[O-])c3)C(c3cccs3)C2)c1 (stereo not drawn) |  | inactive: 3.44%
COc1cc(/C=N/NC(=S)NCCc2ccccc2)cc(OC)c1OC |  | inactive: 0.906%
COc1cc2c(C#N)c(N3CCOCC3)nc(N)c2c(N)n1 | inconclusive [activator, single point] | 
CN(C)S(=O)(=O)Nc1cccc(-c2cn3c(n2)SCC3)c1 |  | inactive: 5.73%
O=C1/C(=C/c2ccc([N+](=O)[O-])cc2)Oc2cc(O)ccc21 | inconclusive [activator, partial curve] | 

Source: PubChem BioAssay AID504706 (National Center for Advancing Translational Sciences (NCATS), 2011)
